Earlier results as cited in patent US11149300B1, “Methods of treating gastrointestinal malignancies” (Cedars-Sinai Medical Center, priority 2018, dated 2021).

Conditions: cited from earlier work

In the case of C[C@]1(c2nc3c(C(N)=O)cccc3[nH]2)CCCN1 [veliparib], the “prolongation of action potential duration” value (4.22±0.02 μg/mL) is listed as 4.8% and the “prolongation of action potential duration” value (39.49±0.70 μg/mL) is listed as 18.6%.

Like-named read-outs stand apart in the source and are kept apart here.
